Some of the results follow.

Six molecules from PMC12136788 can be followed below.

T1: UNK ZnF1-3 (human, UniProt Q9C0B0 31-174)
T1 sequence: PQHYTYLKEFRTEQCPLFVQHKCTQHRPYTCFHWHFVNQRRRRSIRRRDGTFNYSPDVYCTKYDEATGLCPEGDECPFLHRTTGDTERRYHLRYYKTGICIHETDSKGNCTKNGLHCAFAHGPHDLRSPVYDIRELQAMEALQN

B1: chr11:9430111:9430112:+_ENSG00000205339_ENST00000379719|hu_hu|FALSE|FALSE (ssRNA)
RNA: GGGAGUUCUACAGUCCGACGAUCAUGGAUAAUGGCUUCUACAAUAUUUUCUCGAAUACAAUGGCGAUCUUCUUCUGGAAUAGUAUAAGGGGAUAUAUCCCCUGGUGCUGUUUCUCGAUCAGGCCAAUACUGUGUUAUCAUAUUCAACAGAGGAUUGAGCAUCA
B2: chr2:31460152:31460153:+_ENSMUSG00000026843_ENSMUST00000055244|mus_mus|motif|central (ssRNA)
RNA: GGGAGUUCUACAGUCCGACGAUCGUUCUGGAUCUUCUUAAUCAUUUCUCCGUUCCUUCCUAUGACAAUCCCAACAACAAACCGGGGCACAGACACCUCUAUACUACCUCCGCCUGCUCGGGAGGUGAAAUCGCUGCGCACACCCAACAGAGGAUUGAGCAUCA
B3: 45016481_45016601_1758_CDS_ENSMUSG00000036097_ENSMUST00000096053|mouse|control|control (ssRNA)
RNA: GGGAGUUCUACAGUCCGACGAUCUGAAUGCAAAGAUCCCCCAGAAUUUUUCCCUGACGAUUCAUUAGAAACAGCCUUAAUAGUCUUUGCUCUGUGUUCCUUGUGUUUGGAGGAUUCUGUAGAAUGCCCAGAACGUUCUUUUGACAACAGAGGAUUGAGCAUCA
B4: chr9:121621712:121621713:+_ENSMUSG00000032526_ENSMUST00000035113|mus_mus|FALSE|FALSE (ssRNA)
RNA: GGGAGUUCUACAGUCCGACGAUCCUUUGUGAGACUGCUUGUGUUGGCGUCUGCGAUGGUAGCUAAAUAAAUGAGAUUUCUAUGUAACACAUGCUGAUACUGGACGCACUCGUUCGCUCGGCCCUUAUUCUGAUACUCCACGAUCAACAGAGGAUUGAGCAUCA
B5: chr19:16212804:16212805:+_ENSG00000167460_ENST00000300933|hu_mus|hu_hu_hu_mus_False|28_28 (ssRNA)
RNA: GGGAGUUCUACAGUCCGACGAUCAACAAUUCUGGAGUGAAGGAAAGAUGUAACAUGGAACAGCAUUAAAGCUCAGUCAGAAGGCACAUGGGCAACAAUGAUCACCCCCCAAGCAUUGCUUGGAAUGCUUAAAGACAAUCUGUUCAACAGAGGAUUGAGCAUCA
B6: chr2:64323713:64323714:-_ENSG00000197329_ENST00000358912|hu_hu|FALSE|FALSE (ssRNA)
RNA: GGGAGUUCUACAGUCCGACGAUCGCUUUGUACUGACUGUGUAUCAGAAUUACUUUGACUUCCAGGAACCGUGUCAGUUACUACAAAAUCAAUGGGGCUUUCAGUCGACCGGCCAAUCUGAAACAUAUCGGUGUUGCUGUCAUGCAACAGAGGAUUGAGCAUCA

The assay has as its target T1, UNK ZnF1-3. The assay is described as follows: nsRBNS (natural sequence RNA bind-n-seq); RBNS binding buffer (assumed for nsRBNS): 25 mM Tris pH 7.5, 150 mM KCl, 3 mM MgCl2, 0.01% Triton X-100, 500 ug/ml BSA, 20 U/ml SUPERase-In, 4 C; UNK is unkempt and MSI1 is Musashi-1; names of the RNAs are library labels; protein concentration not given here; high values mean tight binding.
The molecule B1 returned a binding signal of 0.974 enrichment R.

In turn, B2 gave a binding signal of 0.837 enrichment R.

B3 gave a binding signal of 0.813 enrichment R. With B4, the binding signal turned out to be 0.74 enrichment R. As for B5, the binding signal came to 1.28 enrichment R.

The molecule B6 gave a binding signal of 0.548 enrichment R.
